# Experimental data: patent US20220213192A1 (WUXI BIOLOGICS IRELAND, published 2022)
# B1: W3659-U14T4.G1-1.uIgG4.SP (bispecific antibody)
# chain: QVQLVESGGGVVQPGGSLRLSCAASDSIDSLVNMGWYRQAPGKQRELVALIATYITHYADFVKGRFTISRDNSKNTLYLQMNSLRAEDTAVYYCYARNIIVDYWGQGTLVTVSS[letters of human IgG4 Fc with S228P (EU numbers) left out]GGGGSGGGGSGGGGSGGGGSGGGGSGGGGSGGGGSQVQLVESGGGVVQPGGSLRLSCAASGLTLSQYTMGWFRQAPGKERELVAAIHWTSSVTDYADSVYGRFTISRDDSKNTGYLQMNSLRAEDTAVYYCAATHYYTHRGPFDYWGQGTLVTVSS
# notes: also called PD-1×LAG-3 bispecific antibody; PD-1×LAG-3 antibody
# Legend:
# [1] = target: T1, human LAG-3 expressed on Jurkat cells with IL-2 luciferase reporter (human, UniProt P18627 23-525); assay: cell-based or functional assay
# T1 sequence (looked up): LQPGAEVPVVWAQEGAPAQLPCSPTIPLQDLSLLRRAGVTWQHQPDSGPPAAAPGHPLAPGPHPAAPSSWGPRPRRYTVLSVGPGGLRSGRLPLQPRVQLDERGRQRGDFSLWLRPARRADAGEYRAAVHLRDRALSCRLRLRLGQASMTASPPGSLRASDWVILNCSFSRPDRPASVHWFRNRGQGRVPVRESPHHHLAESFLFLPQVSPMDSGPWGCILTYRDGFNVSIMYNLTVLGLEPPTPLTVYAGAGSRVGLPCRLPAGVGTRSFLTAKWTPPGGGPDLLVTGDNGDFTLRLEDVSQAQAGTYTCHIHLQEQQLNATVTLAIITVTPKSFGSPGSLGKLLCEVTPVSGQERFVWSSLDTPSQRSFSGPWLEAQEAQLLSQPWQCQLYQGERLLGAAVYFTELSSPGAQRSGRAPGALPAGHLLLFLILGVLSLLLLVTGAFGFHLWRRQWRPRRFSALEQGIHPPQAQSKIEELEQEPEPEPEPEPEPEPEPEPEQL
# [2] = target: T2, His-tagged mouse PD-1 protein (mouse, UniProt Q02242 25-167); assay: ELISA, antibody coated, His-tagged mouse PD-1 titrated
# T2 construct: Bought protein; also called Mouse PD-1 (His tag); not shown: His tag
# T2 sequence (looked up): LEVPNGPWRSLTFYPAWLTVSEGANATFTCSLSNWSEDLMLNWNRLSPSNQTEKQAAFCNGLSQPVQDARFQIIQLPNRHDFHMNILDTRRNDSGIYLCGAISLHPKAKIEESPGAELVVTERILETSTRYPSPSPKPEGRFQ
# Method: (§1) After washing, TMB substrate was added and the color reaction was stopped by 2M HCl. The absorbance at 450 nm was read using a microplate reader.
# [3] = target: T3, His-tagged mouse LAG-3 protein (mouse, UniProt Q61790 24-442); assay: ELISA, antibody coated, His-tagged mouse LAG-3 titrated
# T3 construct: extracellular domain; not shown: His tag
# T3 sequence (looked up): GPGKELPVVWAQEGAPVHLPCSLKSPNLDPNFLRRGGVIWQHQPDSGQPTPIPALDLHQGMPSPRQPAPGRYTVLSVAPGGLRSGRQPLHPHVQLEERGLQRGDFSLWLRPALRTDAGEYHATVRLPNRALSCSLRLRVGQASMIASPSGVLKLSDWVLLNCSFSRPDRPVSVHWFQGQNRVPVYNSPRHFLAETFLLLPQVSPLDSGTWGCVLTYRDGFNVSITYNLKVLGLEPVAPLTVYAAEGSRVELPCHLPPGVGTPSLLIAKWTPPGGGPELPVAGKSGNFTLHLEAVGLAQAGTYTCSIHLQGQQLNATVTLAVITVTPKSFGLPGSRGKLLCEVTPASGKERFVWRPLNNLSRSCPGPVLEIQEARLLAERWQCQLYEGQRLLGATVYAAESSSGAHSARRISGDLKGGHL
# Method: as §1
# [4] = target: T4, cynomolgus PD-1 expressed on 293F cells (cynomolgus, UniProt B0LAJ3 25-288); assay: flow cytometry on 293F cells expressing cynomolgus PD-1
# T4 construct: also called cell surface cynomolgus PD-1
# Method: MFI of the cells was measured by flow cytometry and analyzed by FlowJo (version 7.6.1).
# [5] = target: T5, mouse Fc-tagged human PD-1 (human, UniProt Q15116 part only); assay: ELISA, antibody coated, mouse Fc-tagged human PD-1 titrated
# T5 construct: extracellular domain; also called mouse Fc-tagged PD-1 protein; human PD-1 protein; not shown: mouse Fc tag
# Method: (§2) The plates were then washed and subsequently incubated with HRP-labeled goat anti-mouse IgG antibody for 1 hour. After washing, TMB substrate was added and the color reaction was stopped by 2M HCl. The absorbance at 450 nm was read using a microplate reader.
# [6] = target: T6, mouse Fc-tagged human LAG-3 (human, UniProt P18627 23-450); assay: ELISA, antibody coated, mouse Fc-tagged human LAG-3 titrated
# T6 construct: extracellular domain; only human LAG-3 ECD is described with a mouse Fc tag; also called mouse Fc-tagged LAG-3 protein; human LAG-3 protein; not shown: mouse Fc tag
# T6 sequence (looked up): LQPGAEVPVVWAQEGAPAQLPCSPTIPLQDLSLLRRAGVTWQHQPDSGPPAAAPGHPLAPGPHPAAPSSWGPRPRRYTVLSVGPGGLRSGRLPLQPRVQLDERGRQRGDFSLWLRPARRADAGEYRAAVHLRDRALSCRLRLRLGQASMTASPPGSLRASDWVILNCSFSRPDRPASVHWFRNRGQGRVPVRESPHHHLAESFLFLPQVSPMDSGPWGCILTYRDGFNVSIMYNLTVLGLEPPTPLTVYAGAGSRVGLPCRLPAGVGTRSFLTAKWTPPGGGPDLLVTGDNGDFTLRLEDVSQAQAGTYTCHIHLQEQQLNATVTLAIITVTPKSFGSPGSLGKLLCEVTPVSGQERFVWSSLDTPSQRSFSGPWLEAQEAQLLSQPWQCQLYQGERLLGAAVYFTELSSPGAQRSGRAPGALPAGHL
# Method: as §2
# [7] = target: T7, His-tagged cynomolgus LAG-3 (cynomolgus); assay: ELISA, antibody coated, His-tagged cynomolgus LAG-3 titrated
# T7 construct: Bought protein; also called Cynomolgus LAG-3 (His tag); cynomolgus LAG-3 protein
# Method: as §1
# [8] = target: T8, Recombinant human CD4 protein (human, UniProt P01730 part only, limits assumed); assay: ELISA on coated human CD4 (1 ug/mL), secondary antibody, OD450
# T8 construct: Bought protein
# Method: (§3) Cross-reactivity to human CD4, CTLA-4 or CD28 was measured by ELISA. Plates were coated with human CD4, CTLA-4 or CD28 at 1 μg/mL overnight at 4° C. […] The plates were then washed and subsequently incubated with corresponding secondary antibody for 60 min. After washing, TMB substrate was added and the color reaction was stopped by 2M HCl.
# human CD28 protein = target: T9, human CD28 protein (human, UniProt P10747 19-152); assay: ELISA on coated human CD28 (1 ug/mL), secondary antibody, OD450
# T9 construct: extracellular domain; the only one described is the mouse Fc-tagged ECD; also called Mouse Fc-tagged CD28 ECD; not shown: mouse Fc tag
# Method: as §3
# human CTLA-4 protein = target: T10, human CTLA-4 protein (human, UniProt P16410 36-161); assay: ELISA on coated human CTLA-4 (1 ug/mL), secondary antibody, OD450
# T10 construct: extracellular domain; the only one described is the mouse Fc-tagged ECD; also called Mouse Fc-tagged human CTLA-4 ECD; not shown: mouse Fc tag
# Method: as §3
# [9] = target: T6, mouse Fc-tagged human LAG-3; assay: blocking of mouse Fc-tagged LAG-3 binding to MHC-II on Raji cells, flow cytometry
# Method: The mixture was transferred into the 96-well plates seeded with Raji cells which express MHC-II on the surface. Goat anti-mouse IgG Fc-PE antibody was used to detect the binding of LAG-3 protein to Raji cells. The MFI was evaluated by flow cytometry and analyzed by the software FlowJo.
# [10] = target: T11, PD-1 expressed on CHO-S cells (Homo sapiens (Human), UniProt Q15116 25-288); assay: blocking of mFc-tagged PD-L1 binding to PD-1 expressing CHO-S cells, flow cytometry
# T11 construct: The making of this cell line is not described; also called PD-1 expressing CHO-S cells; PD-1 expressing cells
# Method: The mixture was transferred into the 96-well plates seeded with PD-1 expressing CHO-S cells. […] The MFI was evaluated by flow cytometry and analyzed by the software FlowJo.
# [11] = target: T12, His tagged human PD-1 protein (human, UniProt Q15116 part only); assay: SPR (Biacore 8K), antibody captured by anti-human IgG Fc, His-tagged antigen injected, 1:1 fit
# T12 construct: Analyte in SPR; also called Human PD-1 (His tag); not shown: His tag
# Method: (§4) The chip was regenerated by 10 mM glycine (pH 1.5) after each binding cycle.
# (§5) The sensorgrams of blank surface and buffer channel were subtracted from the test sensorgrams. The experimental data was fitted by 1:1 model using Langmiur analysis.
# [12] = target: T13, His tagged cynomolgus PD-1 (cynomolgus, UniProt B0LAJ3 25-170); assay: as above
# T13 construct: Analyte in SPR; also called Cynomolgus PD-1 (His tag)
# Method: as §4, §5
# [13] = target: T2, His-tagged mouse PD-1 protein; assay: as above
# Method: as §4, §5
# [14] = target: T3, His-tagged mouse LAG-3 protein; assay: SPR (Biacore 8K), antibody captured by anti-human IgG Fc, His-tagged mouse LAG-3 injected, 1:1 fit
# Method: as §4, §5
# Human LAG-3 without tag = target: T14, Human LAG-3 without tag (human, UniProt P18627 23-450); assay: SPR (Biacore 8K), antibody immobilized on CM5, untagged human LAG-3 injected, single-cycle kinetics, 1:1 fit
# T14 construct: extracellular domain; also called untagged LAG-3 ECD protein
# T14 sequence (looked up): T6 sequence (looked up)
# Method: The chip was regenerated with 10 mM glycine (pH 1.5).
# as §5
# [15] = target: T5, mouse Fc-tagged human PD-1; assay: dual-binding ELISA after incubation in human serum at 37 C: mouse Fc-tagged human PD-1 coated, antibody titrated, then His-tagged LAG-3 and HRP anti-His antibody, OD450
# T5 sequence (Q15116 25-170): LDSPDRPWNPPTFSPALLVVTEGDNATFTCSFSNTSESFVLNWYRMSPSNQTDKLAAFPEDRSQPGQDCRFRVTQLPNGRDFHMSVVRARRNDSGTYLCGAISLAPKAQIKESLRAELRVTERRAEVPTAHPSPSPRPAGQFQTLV
# Sequence of human CTLA-4 protein (P16410 36-161): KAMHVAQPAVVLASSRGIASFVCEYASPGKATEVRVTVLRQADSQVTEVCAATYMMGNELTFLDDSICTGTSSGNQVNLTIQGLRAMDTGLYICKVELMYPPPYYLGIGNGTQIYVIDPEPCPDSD
binder,measurement,setting,value
B1,EC50 of IL-2 pathways enhancement in LAG-3 expressing Jurkat,[1],0.84 nM
same,EC50,[2],0.26 nM
same,EC50,[3],0.87 nM
same,EC50,[4],0.36 nM
same,EC50,[5],0.07 nM
same,EC50,[6],0.32 nM
same,EC50,[7],1.21 nM
same,binding result,[8],no binding (tested: 6.7 nM)
same,binding result,human CD28 protein,no binding (tested: 6.7 nM)
same,binding result,human CTLA-4 protein,no binding (tested: 6.7 nM)
same,EC50,[9],1.39 nM
same,EC50,[10],0.58 nM
same,Kd,[11],2.92 nM
same,koff,[11],0.000736 s⁻¹
same,kon,[11],252000 M⁻¹ s⁻¹
same,Kd,[12],8.45 nM
same,koff,[12],0.00166 s⁻¹
same,kon,[12],197000 M⁻¹ s⁻¹
same,Kd,[13],32.9 nM
same,koff,[13],0.00499 s⁻¹
same,kon,[13],152000 M⁻¹ s⁻¹
same,Kd,[14],< 0.0051 nM
same,koff,[14],< 1e-05 s⁻¹
same,kon,[14],1.96e+06 M⁻¹ s⁻¹
same,Kd,Human LAG-3 without tag,0.301 nM
same,koff,Human LAG-3 without tag,9.03e-05 s⁻¹
same,kon,Human LAG-3 without tag,300000 M⁻¹ s⁻¹
same,EC50 (read off the curve),[15],~0.1 nM
